# Patent US7910101B2, “Melanocortin receptor binding mimetibodies, compositions, methods and uses” (Centocor, Inc., priority 2004, dated 2011)
# B1: alpha-MSH mimetibody: protein comprising secretory signal, alpha-MSH peptide, linker, VH, hinge, human IgG1 CH2 and CH3 sequences (SEQ ID NO: 62) (protein)
# chain: MAWVWTLLFLMAAAQSIQAQIQSYSMEHFRWGKPVGSGGGSGTLVTVSS[human IgG1 Fc not spelt out]
# modifications: Melanocortin receptor binding alpha-MSH mimetibody with secretory signal and V1 encoded by an in vitro synthesized DNA
# Test system: male Sprague-Dawley or Wistar rats
# Assay: Food intake and body weight after intracerebroventricular injection in fasted rats
# Assay type: in vivo
# Conditions: ICV administration to rat brain ventricles
# Text: Alpha-MSH mimetibody was supplied to brain ventricules by intracerebroventricular injections (ICV) via a cannula surgically inserted into the left lateral brain ventricle.
# Cannulae were surgically inserted into male Sprague-Dawley or Wistar rats weighing 250 g to 350 g. Cannula placement coordinates were as follows: −0.8 mm from bregma, −4.5 mm ventral and −1.5 posterior-anterior. Animals recovered for 7 to 10 days after surgery. Animals were acclimatized to the experimental procedures by both daily handling and mock injection, in order to minimize stress. In addition animals were submitted to the reversal of dark-light cycle.
# Proper cannula placement was confirmed by an angiotensin II test. The test confirmed proper cannula placement if the ICV administration of 10 ng of angiotensin II via the cannula caused the rats to drink 5-10 ml of water in 30 minutes. Only animals that passed this angiotensin II test were used in food intake experiments.
# Food and water was given to the animals after injection. The amount of food and water consumed was measured at 0 h, 4 h, 24 h, 48 h and 72 h (FIG. 7) after injection.
molecule,measurement,setting,value
B1,animal body weight,"72 hours post injection, FIG. 8",decreases
same,animal food intake,"measured 0-72 h after injection, FIG. 7",decreases animal food intake
